For assay [1], the target named is full length CERK1 fused to a split Venus domain (VYCE or VYNE) (Arabidopsis thaliana) (UniProt A8R7E6). Briefly: split reporter; BiFC with split Venus (VYNE and VYCE), transient expression in Nicotiana benthamiana leaves by Agrobacterium infiltration, fluorescence microscopy after 3-5 days.
Assay [2] deals with full length FKF1 fused to the N-terminal domain (VYNE) of the Venus protein (A. thaliana) (UniProt Q9C9W9). Described as above.
Assay [3] has as its target FLAVIN-BINDING KELCH REPEAT F-BOX1 (FKF1), full length, fused to LexA in bait vector pB29 (A. thaliana) (UniProt Q9C9W9). Briefly: two-hybrid; pairwise tests: FKF1 or its domains before LexA in bait vector pB29, preys after the GAL4 activation domain in pP6; diploid yeast from L40deltaGal4 and Y187; growth on -Leu -Trp -His medium.
The target is the same in assay [4]. Briefly: two-hybrid; genome-wide library screen (ULTImate Y2H, Hybrigenics): FKF1-LexA bait in pB29 against a random-primed cDNA library of one-week-old A. thaliana seedlings in pP6; mating of YHGX13 and L40deltaGal4; His+ colonies on medium lacking tryptophan, leucine and histidine.
For assay [5] the target is unchanged. As to the kind of experiment: two-hybrid; yeast two-hybrid of FKF1 with JAC1 or THRUMIN1; constructs and vectors not told.

Sequences of proteins named here, by UniProt entry; tags and fusion partners are left off.
UniProt Q9C9W9: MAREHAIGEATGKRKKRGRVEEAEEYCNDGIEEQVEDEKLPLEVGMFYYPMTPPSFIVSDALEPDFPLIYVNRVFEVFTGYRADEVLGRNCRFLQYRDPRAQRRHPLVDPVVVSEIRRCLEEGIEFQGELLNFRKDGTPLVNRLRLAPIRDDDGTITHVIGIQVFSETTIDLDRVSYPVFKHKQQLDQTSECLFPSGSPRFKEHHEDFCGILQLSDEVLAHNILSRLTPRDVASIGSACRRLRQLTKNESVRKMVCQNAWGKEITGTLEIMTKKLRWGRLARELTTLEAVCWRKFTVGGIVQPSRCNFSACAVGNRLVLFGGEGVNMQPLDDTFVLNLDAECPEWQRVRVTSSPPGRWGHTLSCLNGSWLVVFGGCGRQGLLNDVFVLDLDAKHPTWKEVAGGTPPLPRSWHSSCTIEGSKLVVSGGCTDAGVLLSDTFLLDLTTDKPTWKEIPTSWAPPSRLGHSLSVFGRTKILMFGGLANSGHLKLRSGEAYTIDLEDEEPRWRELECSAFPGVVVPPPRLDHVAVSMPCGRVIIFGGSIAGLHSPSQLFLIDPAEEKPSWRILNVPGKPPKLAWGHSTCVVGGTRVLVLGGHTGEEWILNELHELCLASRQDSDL

Results are given in words; binding and its absence hold for the method and conditions named. For part of these data: In cells and extracts the contact can be indirect. Some binding calls cover weakened binding; strength is not graded here. For part of these data: Where a sequence is shown, tags or fusion partners need not be part of it.

B1: full length CERK1 fused to a split Venus domain (VYCE or VYNE) (receptor, UniProt A8R7E6 24-617)
chain: KCRTSCPLALASYYLENGTTLSVINQNLNSSIAPYDQINFDPILRYNSNIKDKDRIQMGSRVLVPFPCECQPGDFLGHNFSYSVRQEDTYERVAISNYANLTTMESLQARNPFPATNIPLSATLNVLVNCSCGDESVSKDFGLFVTYPLRPEDSLSSIARSSGVSADILQRYNPGVNFNSGNGIVYVPGRDPNGAFPPFKSSKQDGVGAGVIAGIVIGVIVALLLILFIVYYAYRKNKSKGDSFSSSIPLSTKADHASSTSLQSGGLGGAGVSPGIAAISVDKSVEFSLEELAKATDNFNLSFKIGQGGFGAVYYAELRGEKAAIKKMDMEASKQFLAELKVLTRVHHVNLVRLIGYCVEGSLFLVYEYVENGNLGQHLHGSGREPLPWTKRVQIALDSARGLEYIHEHTVPVYVHRDIKSANILIDQKFRAKVADFGLTKLTEVGGSATRGAMGTFGYMAPETVYGEVSAKVDVYAFGVVLYELISAKGAVVKMTEAVGEFRGLVGVFEESFKETDKEEALRKIIDPRLGDSYPFDSVYKMAELGKACTQENAQLRPSMRYIVVALSTLFSSTGNWDVGNFQNEDLVSLMSGR
For B1, the binding entry in assay [1] is “binds”.

B2: full-length CHUP1 protein fused to the C-terminal domain (VYCE) of the Venus protein (protein, UniProt Q9LI74 1-1004)
chain: MFVRIGFVVAASIAAVTVKRLNVKPSKPSKPSDNGEGGDKEQSVDPDYNLNDKNLQEEEEEEEEEVKLINSVINQTRGSFSDYLDDDILPEFEDLLSGEIEYPLPDDDNNLEKAEKERKYEVEMAYNDGELERLKQLVKELEEREVKLEGELLEYYGLKEQESDIVELQRQLKIKTVEIDMLNITINSLQAERKKLQEELSQNGIVRKELEVARNKIKELQRQIQLDANQTKGQLLLLKQHVSSLQMKEEEAMNKDTEVERKLKAVQDLEVQVMELKRKNRELQHEKRELSIKLDSAEARIATLSNMTESDKVAKVREEVNNLKHNNEDLLKQVEGLQMNRFSEVEELVYLRWVNACLRYELRNYQTPAGKISARDLSKNLSPKSQAKAKRLMLEYAGSERGQGDTDLESNYSQPSSPGSDDFDNASMDSSTSRFSSFSKKPGLIQKLKKWGKSKDDSSVQSSPSRSFYGGSPGRLSSSMNKQRGPLESLMIRNAGESVAITTFGQVDQESPGTPETPNLPRIRTQQQASSPGEGLNSVAASFHVMSKSVDNVLDEKYPAYKDRHKLAVEREKHIKHKADQARAERFGGNVALPPKLAQLKEKRVVVPSVITATGDQSNESNESNEGKASENAATVTKMKLVDIEKRPPRVPRPPPRSAGGGKSTNLPSARPPLPGGGPPPPPPPPGGGPPPPPGGGPPPPPPPPGALGRGAGGGNKVHRAPELVEFYQSLMKRESKKEGAPSLISSGTGNSSAARNNMIGEIENRSTFLLAVKADVETQGDFVQSLATEVRASSFTDIEDLLAFVSWLDEELSFLVDERAVLKHFDWPEGKADALREAAFEYQDLMKLEKQVTSFVDDPNLSCEPALKKMYKLLEKVEQSVYALLRTRDMAISRYKEFGIPVDWLSDTGVVGKIKLSSVQLAKKYMKRVAYELDSVSGSDKDPNREFLLLQGVRFAFRVHQFAGGFDAESMKAFEELRSRAKTESGDNNNNNNNNSNEEESVN
Turning to B2, in assay [2], the binding result is “binds”.

B3: CHUP1 C-terminus (partial), aa707-aa937, in prey vector pP6 (domain or fragment, UniProt Q9LI74 707-937)
chain: ALGRGAGGGNKVHRAPELVEFYQSLMKRESKKEGAPSLISSGTGNSSAARNNMIGEIENRSTFLLAVKADVETQGDFVQSLATEVRASSFTDIEDLLAFVSWLDEELSFLVDERAVLKHFDWPEGKADALREAAFEYQDLMKLEKQVTSFVDDPNLSCEPALKKMYKLLEKVEQSVYALLRTRDMAISRYKEFGIPVDWLSDTGVVGKIKLSSVQLAKKYMKRVAYELDSV
For the molecule B3, the binding result in assay [3] and in assay [4] was “binds” throughout.

B4: JAC1 (J-domain protein required for chloroplast accumulation response 1) (protein, UniProt Q9C9Q4 1-651)
chain: MQTLPSSETVLLGSNSAPPVLRSPGGDDVDIDFGDVFGGPPKRRSKVTSNEVTRHSFSESALRRRDVIVDVGDLLPQDEKPVFGEDTSSVRRRFTTDDFFDDIFRVNESSSLPGSRILSPAHKPESSSGTSSPSQFSLPAKATEIPTFNLAATRSLNKNKETVSSSPLSRTSSKADVVSTAKSYSDDCDDPPQVFVTGKGRQFHFSIYKWPNKGVPVVIWGSSRLSSMSKAEETTPVPLSDYRKTSVVEKLGKNEEGDGKSGLSGLKDVKKTSLKRPGVQTKEEKTETDLKSEQAFFGVSKAREANVKPLDSVESEQAFSGVSKAHEATTVKPLHSIFHEEDERQDEKIVSEREVRKGKSKAKNTRSFTEDSRTKKKSQGTKSSLDSSPIPDKSSFASSSAAPEVGKDGVKGKVSDFVKIFSKGASVGAGGESLGQSSRWRAKETPKTDIIHDGSNAKETVNIPDQQKKSTPDIPAMNRDQKPSQSTQKKDSDRESMNYKAPGDTVQEERQEPSTTHTTSEDIDEPFHVNFDVEDITQDENKMEEANKDAEEIKNIDAKIRKWSSGKSGNIRSLLSTLQYILWSGSGWKPVPLMDMIEGNAVRKSYQRALLILHPDKLQQKGASANQKYMAEKVFELLQEAWDHFNTLGPV
Take B4: the binding result in assay [5] is given as “no binding”.

B5: CHUP1 C-terminal (aa707-aa1004) in prey vector pP6 (domain or fragment, UniProt Q9LI74 707-1004)
chain: ALGRGAGGGNKVHRAPELVEFYQSLMKRESKKEGAPSLISSGTGNSSAARNNMIGEIENRSTFLLAVKADVETQGDFVQSLATEVRASSFTDIEDLLAFVSWLDEELSFLVDERAVLKHFDWPEGKADALREAAFEYQDLMKLEKQVTSFVDDPNLSCEPALKKMYKLLEKVEQSVYALLRTRDMAISRYKEFGIPVDWLSDTGVVGKIKLSSVQLAKKYMKRVAYELDSVSGSDKDPNREFLLLQGVRFAFRVHQFAGGFDAESMKAFEELRSRAKTESGDNNNNNNNNSNEEESVN
Regarding B5, in assay [3], the binding entry was “binds”.

These data come from publication PMC9920714.
